Source: PubChem BioAssay AID651820 (National Center for Advancing Translational Sciences (NCATS), 2012)
Out of some 340,000 compounds screened, about 12,000 (3.5%) were called active. The shares of active, inactive and inconclusive entries below differ from those in the screen. The call rests on the fitted dose curve; in most records, active means well fitted inhibition curve with a large enough effect; inconclusive means small, poorly fitted or top-dose-only effect, or another doubt; inactive means no such curve, though single readings can be large or run the other way. No potency is given beside an inconclusive call; the fits are too rough.

test: qHTS Assay for Inhibitors of Hepatitis C Virus (HCV); details: Huh7.5.1 HCVcc-Cre (HCVcc is cell-culture hepatitis C virus) infection, luciferase reporter, 44 h; activity change, negative = inhibition: at 41.8 µM (top of the series) unless noted
Method in brief: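 After 44 h co-culture of compound, cells and HCVcc-Cre (~0.5 moi), substrate is added for 15 min at room temperature and luciferase measured over 15 sec. Cells were seeded at 1,000/well and pre-cultured 4 h.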
On the % scale 0 is the no-effect control and ±100 the full control effect; potency means the concentration at half of the fitted maximal effect; tags describe the fitted curve by direction and shape.

Compound | activity change, negative = inhibition | Potency
CCOc1ccc(S(=O)(=O)NCc2ccccn2)cc1NC(=O)c1ccccc1F | inactive: -13% | 
CCc1ccccc1NS(=O)(=O)c1ccc2[nH]cc(C(=O)NC3CCCC3)c(=O)c2c1 | inactive: 4.79% | 
CSc1ncccc1C(=O)Nc1nc2c(C)cccc2s1 |  | inconclusive [inhibitor, partial curve]
O=C(c1ccc(Br)cc1)N1CCC(C(=O)N2CCN(c3ccccc3)CC2)CC1 |  | inconclusive [inhibitor, partial curve, poor fit]
CC(C)(C)C(=O)Nc1ccccc1C(=O)Nc1cccnc1 | inactive: -12.1% | 
Cc1cc([N+](=O)[O-])nn1CC(=O)N/N=C/c1ccccc1O | inactive: 13% | 
Cc1nc2ccccc2nc1SCC(=O)c1ccccc1 |  | inconclusive [inhibitor, single point]
CN(C)S(=O)(=O)n1cc(/C=C(\NC(=O)c2ccccc2Cl)C(=O)N2CCCC2)c2ccccc21 | inactive: 13.7% | 
COc1ccc(-c2c(C#Cc3ccc(N(C)C)cc3)c3ccccc3n2C)cc1 |  | inconclusive [inhibitor, partial curve]
COc1ccc2cc(C(=O)NCc3ccccc3CN3CCCC3)ccc2c1 |  | active: 7.08 µM
COc1cc(N)c(Cl)cc1C(=O)OCC(=O)NCc1cccs1 |  | inconclusive [inhibitor, partial curve]
O=[N+]([O-])c1ccc(N2CCN(Cc3ccccc3)CC2)nc1 |  | inconclusive [inhibitor, single point]
CC(=O)NCCc1ccc(-c2csc(NC(=O)C3CC(=O)N(C4CCCC4)C3)n2)cc1 (stereo not given) |  | inconclusive [inhibitor, single point]
C[C@H](CO)N1C[C@H](C)[C@@H](CN(C)Cc2ccc(-c3ccccc3)cc2)Oc2ccc(NC(=O)Cn3cnnn3)cc2C1=O |  | inconclusive [inhibitor, single point]
COc1ccc(-c2csc(NC(=O)Nc3ccccc3)n2)cc1 |  | inconclusive [inhibitor, partial curve]
COc1ccccc1N1CCN(C(=O)c2cc3sccc3n2C)CC1 |  | inconclusive [inhibitor, single point]
CC(C)c1ccc(NC(=S)Nc2cccc3ccccc23)cc1 |  | inconclusive [inhibitor, partial curve]
Cc1nnc2c(NC3CCCCC3)nc3ccccc3n12 | inactive: -10.9% | 

Compound | activity change, negative = inhibition | Potency
CC(C)C(CCNCc1ccccn1)c1ccc(Cl)cc1 (stereo not given) |  | inconclusive [inhibitor, partial curve]
O=C(CSc1nnc(-c2c[nH]c3ccccc23)o1)c1ccc(-c2ccccc2)cc1 |  | inconclusive [inhibitor, single point]
O=C(/C=C/NNC(=O)c1ccccc1)c1ccccc1 |  | inconclusive [inhibitor, single point]
O=C(COc1cccnc1[N+](=O)[O-])Nc1ncc(Cl)cc1Cl |  | inconclusive [inhibitor, partial curve]
CC(C)C(=O)Nc1sc2c(c1C(N)=O)CCN(Cc1ccccc1)C2 | inactive: -9.32% | 
O=[N+]([O-])c1ccc(NC(=S)NCc2ccncc2)cc1 |  | inconclusive [inhibitor, partial curve]
Oc1ccc(/C=C/c2nc(-c3ccccc3O)n(-c3ccccc3)n2)cc1 |  | inconclusive [inhibitor, single point]
COC(=O)c1cccc(Nc2ncnc3ccc(C)cc23)c1 | inactive: -22.7% | 
c1ccc(CCCN2CCN(CCOC(c3ccccc3)c3ccccc3)CC2)cc1 |  | active: 7.94 µM
CCOC(=O)c1[nH]c2ccc(F)cc2c1NC(=O)C(C)N1CCc2cc(OC)c(OC)cc2C1 (stereo not given) |  | inconclusive [inhibitor, single point]
Cc1cc(SCC(=O)c2ccccc2)n2ncc(-c3ccccc3)c2n1 |  | inconclusive [inhibitor, full curve]
O=C(Cn1ncc(Cl)c(Cl)c1=O)c1ccc(Cl)cc1 |  | active: 2.82 µM
Cc1ccc(S(=O)(=O)N(C)c2ccc(OCC(=O)Nc3nc4ccccc4s3)cc2)cc1 |  | inconclusive [inhibitor, partial curve]
CCC1CCCCN1S(=O)(=O)c1ccc(NC(=O)c2snnc2C)cc1 (stereo not given) |  | inconclusive [inhibitor, single point]
NNc1nc2c(-c3ccc(Cl)cc3)nnn2c2ccccc12 |  | inconclusive [inhibitor, single point]
COc1cc2ncnc(NCc3ccc(C)o3)c2cc1OC | inactive: -13.8% | 
COc1ccc(C(=O)OCC(=O)Nc2sccc2C(N)=O)cc1OC |  | inconclusive [inhibitor, single point]
